To fix the notation:
T1: UNK ZnF1-6 (called full-length) (human, UniProt Q9C0B0 30-357)
T1 sequence: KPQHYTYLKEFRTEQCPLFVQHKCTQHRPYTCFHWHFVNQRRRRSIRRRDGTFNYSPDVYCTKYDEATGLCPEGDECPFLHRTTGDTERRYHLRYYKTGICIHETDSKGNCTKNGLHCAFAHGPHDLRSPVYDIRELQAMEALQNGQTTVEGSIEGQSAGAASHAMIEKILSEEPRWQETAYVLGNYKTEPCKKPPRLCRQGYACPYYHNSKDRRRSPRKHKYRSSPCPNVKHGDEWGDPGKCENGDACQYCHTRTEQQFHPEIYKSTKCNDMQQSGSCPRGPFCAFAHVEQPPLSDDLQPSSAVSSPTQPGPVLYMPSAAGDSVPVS

B1: ENSG00000168556:stop:overlap|stop_codon|ENSG00000168556|stop_codon|NA|stop_codon (ssRNA)
RNA: GGGAGUUCUACAGUCCGACGAUCAUAAUGAGAAAACAAUGGACAAAAGUACUGAAAAGACAAAAAAGGAUAGAAGAUCGAGGUAGUAAAGGCCAUCCACAUUUUAAAGGGUUAUUUGUCUUUUAUAUAAUUCGUUUGCUUUCACAACAGAGGAUUGAGCAUCA
B2: chr16:46660370:46660459:-|3pUTR|ENSG00000069329|msi1_unk|FALSE|overlapping (ssRNA)
RNA: GGGAGUUCUACAGUCCGACGAUCAAAAGGAAAUAGCUCACCAUACUCCUUUCCAUGUACAUCCAGUGAGGGUUUUAUUACGCUAGGUUUCCCUUCCAUAGAUUGUGCCUUUCAGAAAUGCUGAGGUAGGUUUCCCAUUUCUUACAACAGAGGAUUGAGCAUCA
B3: chr11:95129132:95129233:+|CDS|ENSG00000149218|msi1|total|mutant (ssRNA)
RNA: GGGAGUUCUACAGUCCGACGAUCAAUCCUGAAGAACAUUGUCUAUUUCCUGUGGUGUGUUACCAAGCAGGUGAUUAAUGGCACCGAAAGUUGCCUUUACCGCCUGGGCUCAGCCACCAUCUCAUACUUCAUGGCCAUUGGGGACAACAGAGGAUUGAGCAUCA
B4: chrX:40074726:40074839:-|CDS|ENSG00000183337|unk|total|mutant (ssRNA)
RNA: GGGAGUUCUACAGUCCGACGAUCGCGCUGGGCUUGGACAGGCCUGCCAGCGACAAACAGAGCCCUCUCAACAUCAAUGGUGCCCGUUAUCUGCGGCUGCCCUGGGUCAAUCCUUACAUGGAGGGUGCCACGCCAGCCAUCUACCAACAGAGGAUUGAGCAUCA
B5: chrX:48915045:48915146:-|CDS|ENSG00000102096|unk|total|mutant (ssRNA)
RNA: GGGAGUUCUACAGUCCGACGAUCCCAGCACUGCCAUUCCCGUGGAGUUGUCCAUCGUGACAUCAAGGAUGAGAACAUCCUGACCGACCUACGCCGUGGCUGUGCCAAACUCAUUGAUUUUGGUUCUGGUGCCCUGCUUCAUGACAACAGAGGAUUGAGCAUCA
B6: chr2:218264180:218264222:-|3pUTR|ENSG00000127837|msi1_unk|total|mutant (ssRNA)
RNA: GGGAGUUCUACAGUCCGACGAUCUUGAGGUUCCCGUUCUUUCCCUUCCCAAGUCUCUGGGGGUGGAAAGGAGGAAGAGAUACCCGUUAAAGAUUUUAAAAAUGUAAAUAAAAUAUACUUCCCAGAGACAGAGUCUGUGUGGAUCAACAGAGGAUUGAGCAUCA
B7: chr1:156742365:156742464:-|3pUTR|ENSG00000143321|msi1_unk|FALSE|overlapping (ssRNA)
RNA: GGGAGUUCUACAGUCCGACGAUCAUUUCUGAGGUGCACUGGGAGGCUCCCCUUCUAUUUGGGGCUUGAUGACUUUCUUUUUGUAGCUGGGGCUUUGAUGUUCCUUCCAGUGUCAUUUCUCAUCCACAUACCCUGACCUGGCCCCAACAGAGGAUUGAGCAUCA
B8: chr3:121436121:121436275:-|CDS|ENSG00000051341|control|control|control (ssRNA)
RNA: GGGAGUUCUACAGUCCGACGAUCAGUCCAAGGAUCAGCAGCUGAUAUUGUCAAAAUAGCCACAGUUAACAUUCAGAAGCAAUUAGAGACCUUCCACUCAACCUUCAAAUCCCAUGGUCAUCGAGAGGGUAUGCUCCAAAGUGACAACAGAGGAUUGAGCAUCA
B9: chr17:2300308:2300409:-|CDS|ENSG00000070366|unk|FALSE|unique (ssRNA)
RNA: GGGAGUUCUACAGUCCGACGAUCGACCCAGAAAAUAAUCGGGGACAAGAAUCCUUUCCUAGGACUGCUGGACAAGAGGAUCGUAGUCUAAAAAUUAUCAAAAGAACAAAGAAACCCGACCUGCAGAUCUAUCAGCCUGGACGACAACAGAGGAUUGAGCAUCA
B10: chr12:89590234:89590335:-|3pUTR|ENSG00000070961|msi1|FALSE|bound_elsewhere (ssRNA)
RNA: GGGAGUUCUACAGUCCGACGAUCUUUGCCUACAAUUUACCUUGUUAAAUAUUGUAGAUAAAUUGCUAAUACUAAUAGCCAAAUAGAUAACACUAAUGCUUUGUUUAAAAAAACGAAAAAAACAAAACAAAACAAAAAAACAUGCAACAGAGGAUUGAGCAUCA
B11: chr8:80499649:80499757:+|CDS|ENSG00000205189|unk|total|mutant (ssRNA)
RNA: GGGAGUUCUACAGUCCGACGAUCUAAGACUUUAUAUUGCUUUUCAAACAAAGAAAGCCCUAACCAAAACAAUACUACCCACUCCGAUAUUGCUGCAGUUCAAGGUUUUUCAGUCAUCUUGGACUUCUUGUAUUCUGGUAACCUCAACAGAGGAUUGAGCAUCA
B12: chr3:17009782:17009883:+|CDS|ENSG00000154822|unk|total|mutant (ssRNA)
RNA: GGGAGUUCUACAGUCCGACGAUCAAUUCAAUGGUUGAGGGUUCAGAACUCAAAAAGGUUCGCUCCAACUCCCGAAUUUAUCACCGGUACUUUUUACUGGAUGCUGACAUGCAGAGCCUAAGGUGGGAGCCAUCUAAGAAGGAUCAACAGAGGAUUGAGCAUCA
B13: chr15:52122579:52122653:-|3pUTR|ENSG00000069966|msi1_unk|total|mutant (ssRNA)
RNA: GGGAGUUCUACAGUCCGACGAUCUCUUCACAUGUAAACCGAUAUUACUUCCCGAGGAGCUCCGAGUUUAUUGCAGUGCCGCUCCGGGGAGCAACCCAUGGCUCACAGGUCACUAAGCGUCUCCAAUAUGACUAUUAAAACUGUCAACAGAGGAUUGAGCAUCA
B14: chr7:105566322:105567453:-|three_prime_utr|ENSG00000185055|control|control|control (ssRNA)
RNA: GGGAGUUCUACAGUCCGACGAUCAGUUUCAUUAAUUCAGAAUUUCAUCAUAUAACUUGAAAUCCAAUUGGCUUCCUCUUUCUUAGAAACAAAAACCAAAGAAACCUUUUUCUGAAAGACAUUAUUUUCCAGUAUUAGGCCAAUCAACAGAGGAUUGAGCAUCA
B15: chr10:11763304:11763405:+|CDS|ENSG00000134463|unk|total|mutant (ssRNA)
RNA: GGGAGUUCUACAGUCCGACGAUCGGGCUGCUCCGCAAGGUGGUGCCAGAGGCGGAGCUGCAGGAGGAGACCAUGCGGAUCGCCCGGAAGAUCGCAUCGCUGAGCCGUCCGGUGGUGUCCCUGGGCAAAGCCACCUUCUACAAGCAACAGAGGAUUGAGCAUCA
B16: chr17:82078764:82078865:-|3pUTR|ENSG00000169710|msi1_unk|FALSE|overlapping (ssRNA)
RNA: GGGAGUUCUACAGUCCGACGAUCCCGUGGGGUCUGCGCUUGGUCUUUCUGUGCUUGGAUUUGCAUAUUUAUUGCAUUGCUGGUAGAGACCCCCAGGCCUGUCCACCCUGCCAAGACUCCUCAGGCAGCGUGUGGGUCCCGCACCAACAGAGGAUUGAGCAUCA
B17: chr2:39051162:39051270:-|CDS|ENSG00000115904|unk|total|mutant (ssRNA)
RNA: GGGAGUUCUACAGUCCGACGAUCAAAUAUAUUCCGUCGCACCGCCGAUAUACAUGAACUCCGUGUAAAGUUACUGGGCCAUACCGAAGAUACAGCCGAAAUGACAGAUGAAGGCAGUCCCCAUCCACCCGCCGGAAGCUGCUUCAACAGAGGAUUGAGCAUCA
B18: chr4:70820284:70820384:-|3pUTR|ENSG00000132463|msi1_unk|total|mutant (ssRNA)
RNA: GGGAGUUCUACAGUCCGACGAUCUGAACUGGUAUGGUUUGGCAGAACCGUUUUAAAUUUUGCUGUAUUUGAUUACUCCGAGACCGGAAUUUUUAAAAAUCAAAACAAAAAAUACCACAGCUCCGUGUAAAUGACAAUUUGGCGCAACAGAGGAUUGAGCAUCA
B19: chr6:122432834:122432935:+|3pUTR|ENSG00000025156|msi1|total|mutant (ssRNA)
RNA: GGGAGUUCUACAGUCCGACGAUCAUAUACCGAAAGAUCGGGGGUGGGAUGGGAUGGAGUGAGCCCCAUCCAGUCCGUUGGACCCGUUUUAAAUAAAGGUUUUCCGGUUUGUGUUUUUUUGAACCAUACUGUUCCGUAAAAUAACAACAGAGGAUUGAGCAUCA
B20: chr7:7573188:7573293:+|CDS|ENSG00000164654|unk|FALSE|bound_elsewhere (ssRNA)
RNA: GGGAGUUCUACAGUCCGACGAUCCCAUAUUUCCACGAUCGUGUUGCUUCCUUCUAUGAAGGUCAGGUUGCAAUAUGGGAUCUUAGAAAAUUUGAGAAGCCAGUUUUGACAUUGACUGAGCAACCAAAACCCUUAACAAAAGUACAACAGAGGAUUGAGCAUCA
B21: chr2:216675642:216675774:-|3pUTR|ENSG00000115461|msi1|FALSE|unique (ssRNA)
RNA: GGGAGUUCUACAGUCCGACGAUCUUUUUCUUUGUUUUUUUCUUUCUUCCUUUCUUUCAAAGGUUUGCAUUAACUUUUCAAAGUAGUUCCUAUAGGGGCAUUGAGGAGCUUCCUCAUUCUGGGAAAACUGAGAAAACCCAUAUUCAACAGAGGAUUGAGCAUCA
B22: chr17:48133441:48133816:-|three_prime_utr|ENSG00000141293|control|control|control (ssRNA)
RNA: GGGAGUUCUACAGUCCGACGAUCAGCUACCAGUAAGACAAGUGGGAAGAGGCACGUUCAUCAAACCUGUUACUAAACCAGCCUAGUCAUAGCUCAUCCCCAUCUCUAAAUGUGUCCACACAACCACAUCUGCCUUUUCCACAACAACAGAGGAUUGAGCAUCA

Some of the results follow.

This assay has as its target T1, UNK ZnF1-6 (called full-length). The assay is described as follows: nsRBNS (natural sequence RNA bind-n-seq); RBNS binding buffer (assumed for nsRBNS): 25 mM Tris pH 7.5, 150 mM KCl, 3 mM MgCl2, 0.01% Triton X-100, 500 ug/ml BSA, 20 U/ml SUPERase-In, 4 C; UNK is unkempt and MSI1 is Musashi-1; names of the RNAs are library labels; protein concentration not given here; high values mean tight binding.
For the molecule B1, the binding signal was 0.601 enrichment R.

B2 returned a binding signal of 0.4 enrichment R.

In turn, B3 yielded a binding signal of 0.449 enrichment R.

For the molecule B4, the binding signal was 0.869 enrichment R.

For B5, the binding signal came to 0.637 enrichment R.

B6 showed a binding signal of 0.812 enrichment R.

B7 came in with a binding signal of 0.801 enrichment R.

In turn, B8 came in with a binding signal of 0.755 enrichment R.

B9 returned a binding signal of 1.13 enrichment R.

Molecule B10 displayed a binding signal of 1.06 enrichment R.

The molecule B11 had a binding signal of 0.496 enrichment R.

B12 yielded a binding signal of 0.597 enrichment R.

In turn, B13 displayed a binding signal of 0.499 enrichment R.

Take B14: the binding signal came to 0.874 enrichment R.

B15 had a binding signal of 0.722 enrichment R.

Regarding B16, the binding signal stood at 0.749 enrichment R.

Molecule B17 returned a binding signal of 0.615 enrichment R.

In turn, B18 showed a binding signal of 0.414 enrichment R.

Consider B19, for which the binding signal was found to be 0.521 enrichment R.

As for B20, the binding signal was determined as 0.375 enrichment R.

Consider B21, for which the binding signal came out at 0.426 enrichment R.

Molecule B22 had a binding signal of 0.873 enrichment R.
